Variants at the background level are over-represented here.
B1: tRNA (parent)
chain: CUCUCGGUAGCCAAGUUGGUUUAAGGCGCAAGACUUUAAUUUAUCACUACGAAAUCUUGAGAUCGGGCGUUCGACUCGCCCCCGGGAGAUUUUUUCCUCGAGCAA

Variants of: B1
Test: nonsense suppression (GFP-seq) (ratio to wild type); higher = more function; SUP4oc tRNA, yeast GFP reporter sort-seq
Summary of the method: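 Yeast carrying genome-integrated SUP4oc tRNA variants from a library with ~3% random mutations were grown in raffinose/galactose medium with 80 mg/L adenine. Each strain also carried a galactose-driven GFP ochre reporter and RFP. Cells were sorted into GFP/RFP bins, and each bin was Illumina-sequenced (phred ≥30). Nonsense suppression (GFPSEQ) is the bin median GFP/RFP, weighted by each variant's estimated cell share per bin, relative to wild-type SUP4oc; variants needed ≥100 reads and ≥30 cells.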

CUCUCGGUAUCCAAGUUGGUUUAAGGCGCAGGACUUUAAUUUAUCACUACGAAAUCUUGAGAUCGGACGUUCGACUCGACCCCGGGAGAUUUUUUCCUCGAGCAA [G10U A31G G67A C79A] and CUCUCGGUAUCCAAGUUGGUUUAAGGGGCAGGAUUUUAAUUUAUCACUACGAAAUCUUGAGAUCGGGCGUUCGACUCGCCCCCGGGAGAUUUUUUCCUCGAGCAA [G10U C27G A31G C34U] cannot be ordered by nonsense suppression: no more than 0.026 for the first, no more than 0.026 for the second.

CUCUCGGUAUCCAAGUUGGUUUAAGGCGCCAGACUUUAAUUUAUCACUACGAAAUCCUGAGACCGGGCGUUCGACUCGCCCCCGGGAGAUUUUUUCCUCGAGCAA [G10U A30C U57C U63C] and CUCUCGGUAUCCAAGUUGGUUUAAGGCGCAUGAUUUUAAUUUAUCACUACGAAAUCUUGAGAUCGGGCGUACGACUCGCCCCCGGGAGAUUUUUUCCUCGAGCAA [G10U A31U C34U U71A] cannot be ordered by nonsense suppression: no more than 0.026 for the first, no more than 0.026 for the second.

Going from CUCUCGGUAUCCAUGUUGGUUUAAGGCGCAAGACUUUAAUUUAUCACUACGAAAUCUUGAGAUCGGGCGUUCGACUCGCCCCCGGGAGAUUUUUUCCUCGAGCAA [G10U A14U] to CUCUCGGUAUCCAAGUUGGUUUAAGGCGAAAGACUUUAAUUUAUCACUACGAAAUCUUGAGAUCGGGCGUUCGACUCGCCCCCGGGAGAUUUUUUCCUCGAGCAA [G10U C29A], the nonsense suppression falls from 0.19 to no more than 0.026.

CUCUCGGUAUCCAAGUUGGUUUAAGGCGUAAGACUUUAAUUUAUCACUACGAAUUCUUGAGAUCGGGCGUUCGACUCGCCCCCGGGAGAUUUUUUCCUCGAGCAA [G10U C29U A54U] and CUCUCGGUAUCCAAGUUGGUUUAAGGCGCAAGAUUUUAAUUUAUCACUACGAAAUCCUGAGAUCGGGCGUUCGACUCGCCCCCGGGAUAUUUUUUCCUCGAGCAA [G10U C34U U57C G88U] cannot be ordered by nonsense suppression: no more than 0.026 for the first, no more than 0.026 for the second.

CUCUCGGUAUCCAAGUUGGUUUAAGGCGCAAGACUUUAAUUUAUCACUACGAAAUCUUGAGAUCGGGCGUUAGACUCGCCCCCGGGAGAUUUUUUCCUCGAGCAA [G10U C72A] and CUCUCGGUAUCCAAGUUGGUUUAAGGCGCAAGACUUUAAUUUAUCACUACGAAAUCUUGAGAUCGGGCGUUUGACUCGCCCCCGGGAGAUUUUUUCCUCGAGCAA [G10U C72U] cannot be ordered by nonsense suppression: no more than 0.026 for the first, no more than 0.026 for the second.

CUCUCGGUAUCCAAGUUGGUUUAAGGCGCAAGACUUUAAUUUAUCACUACGAAAUAUUGAGAUCGGGCGUUCGACUCGCCCCCGGGAGAUUUUUUCCUCGAGCAA [G10U C56A] and CUCUCGGUAUCCAAGUUGGUUUAAGGCGCAAGACUUUAAUUUAUCACUACGAAAUCUUGAGAUCGGGAGUUCGACCCGCCCCCGGGAGAUUUUUUCCUCGAGCAA [G10U C68A U76C] cannot be ordered by nonsense suppression: no more than 0.026 for the first, no more than 0.026 for the second.

CUCUCGGUACCCAAGUUGGUUUAAGGCGCAAGACUUUAAUUUAUCACUACGAAAUCUCGAGAUCGGGCGUUCGACUCGCCCCCCGGAGAUUUUUUCCUCGAGCAA [G10C U58C G84C] and CUCUCGGUAUCCAAGUUGGUUUAAGGCGCAAGACUUUAAUUUAUCACUACGAAAUUUUGAGAUCGGGCGUUCGUCUCGCCCCCGGGAGAUUUUUUCCUCGAGCAA [G10U C56U A74U] cannot be ordered by nonsense suppression: no more than 0.026 for the first, no more than 0.026 for the second.

CUCUCGGUACCCAAGUUGGUUUAAGGCGCAAGACUUUAAUUUAUCACUACGAAAUCCUGAGACCGGGCGUUCGACUCGCCCCCGGGAGAUUUUUUCCUCGAGCAA [G10C U57C U63C] and CUCUCGGUAUCCAAGUUGGUUUAAGGCGCAAGACUUUAAUUUAUCACUACGAAAUCUUGAGAUCGGGCGUUCGGCUCGCCCCCGGGAUAUUUUUUCCUCGAGCAA [G10U A74G G88U] cannot be ordered by nonsense suppression: no more than 0.026 for the first, no more than 0.026 for the second.

CUCUCGGUAUCCAAGUUGGUUUUAGGCGCAAGACUUUAAUUUAUCACUACGAAAUCUUGAGAUCGGGCGUUCGACUCGCCCCGGGGAGAUUUUUUCCUCGAGCAA [G10U A23U C83G] and CUCUCGGUACCCAAGUUGGUUUAAGGCGCAAGACUUUAAUUUAUCACUACGAAAUCGUGAGAUCGGGCGUUCGACUCGCCCCCGGGAGAUUUUUUCCUCGAGCAA [G10C U57G] cannot be ordered by nonsense suppression: no more than 0.026 for the first, no more than 0.026 for the second.

CUCUCGGUAUCCAAGUUGGUUUAAGGCGCAAGACUUUAAUUUAUCACUACGAAAUCUUGGGAUCGGGCGUUCGACUCGCCCCCGGGAGAUUUUUUCCUCGAGCAA [G10U A60G] and CUCUCGGUAUCCAAGUUGGUUUAAGGCGCAAGACUUUAAUUUAUCACUACGAAAUCUUGCGAUCGGGCGUUCGACUCGCCCCCGGGAGAUUUUUUCCUCGAGCAA [G10U A60C] cannot be ordered by nonsense suppression: no more than 0.026 for the first, no more than 0.026 for the second.

CUCUCGGUAUCAAAGUUGGUUUAAGGCGCAAGACUUUAAUUUAUCACUACGAAAUCUUGAGAUCGGGCGUUCGACUCGCCCCCGGGAGAUUUUUUCCUCGAGCAA [G10U C12A] and CUCUCGGUAUCCAAGUUGGUUUAAGGGGCAAGACUUUAAUUUAUCACUACGAAAUCUUGAGAUCGGGCGUUCGACUCGACCCCGGGAGAUUUUUUCCUCGAGCAA [G10U C27G C79A] cannot be ordered by nonsense suppression: no more than 0.026 for the first, no more than 0.026 for the second.

CUCUCGGUAUCCAAGUUGGUUUAAGGCGCGAGACUUUAAUUUAUCACUACGAAAUCUUGAGAUCGGGCAUUCGACUCGCCCCCGGGAGAUUUUUUCCUCGAGCAA [G10U A30G G69A] and CUCUCGGUAUCCGAUUUGGUUUAAGGCGCAAGACUUUAAUUUAUCACUACGAAAUGUUAAGAUCGGGCGUUCGACUCGCCCCCGGGAGAUUUUUUCCUCGAGCAA [G10U A13G G15U C56G G59A] cannot be ordered by nonsense suppression: no more than 0.026 for the first, no more than 0.026 for the second.

CUCUCGGUAUCCAAGUUGGUUUAUGGCGCUAGACUUUAAUUUAUCACUACGAAAUCUUGAGAUCGGGCGUUCGACUCGCCCCCGUGAGAUUUUUUCCUCGAGCAA [G10U A24U A30U G85U] and CUCUCGGUAUCCAGGUUGGUUUAAGGCGCAAGACUUUAAUUUAUCACUACGAAAUCUUGAGAUCGGGCGUUCGACUCGCCCCGGGGAGAUUUUUUCCUCGAGCAA [G10U A14G C83G] cannot be ordered by nonsense suppression: no more than 0.026 for the first, no more than 0.026 for the second.

CUCUCGGUAUCCAAGUUGGUUUAAGGCGCAAGACUUUAAUUUAUCACUACGAAAUCUUGAGAUCGGGCGUUCGACUCGCCCACGGGAGAUUUUUUCCUCGAGCAA [G10U C82A] gave a nonsense suppression of no more than 0.026.

From the RNAGym collection of RNA variant scans (doi:10.1101/gad.245936.114)
